This passage reports self-cleavage results from the RNAGym collection of RNA variant scans (doi:10.7554/elife.90254).

Read counts are not given, so values of variants with three or more changes are uncertain.

First the molecules themselves.
B1: LINE1-full (parent)
chain: UACGUAGGUGGUUUUCCCCUGAUAGUGCUAAGGGGGCCUGGAAGUUUGGACUGGGCAGAGCUCAACACAGCGUGGCAAAGUGGCUGUGGCUAGACUGCCUCUCUGGAUUCCUCGUCACUCAGCAGGGCAUCUCUGAGAGAAAUGCC

The variants in this data set derive from B1. The experiment in a line: self-cleavage, relative activity (ratio to wild type); higher = more cleavage; in vitro, sequencing; the parent is a self-cleaving ribozyme.
In the case of UACGUAGGUGGUUUUCCCCUGGUAGUGCUAAGGGGGCCUGGAAGUAUGGACUGGGCAGAGCUCAACACAGCGUGGCAAAGUGGCUGUGGCUAGGCUGCCUCUCUGGAUUCCUCGUCACUCAGCAGGGCAUCUCUGAGAGAAAUGCC, the self-cleavage is 0.37. Turning to UACGUAGGUGGUUUUCCCCUGGUAGUGCUAAGGGGGCCUGGAAGUUUGGACUGGGCAGAGCCCAACAUAGCGUGGCAAAGUGGCUGUGGCUAGACUGCCUCUCUGGAUUCCUCGUCACUCAGCAGGGCAUCUCUGAGAGAAAUGCC, the self-cleavage worked out at 0.04.

As for UACGUAGGUGGUUUUCCCCUGGUAGUGCUAAGGGGGCCUGGAAGUUCGGACUGGGCAGAGCUCAACACAGCGUGGCAAAGUGGCCGUGGCUAGACUGCCUCUCUGGAUUCCUCGUCACUCAGCAGGGCAUCUCUGAGAGAAAUGCC, the self-cleavage was 0. For the variant UACGUAGGUGGUUUUCCCCUGGUAGUGCUAAGGGGGCCUGGAAGUAUGGACUGGGCAGAGCUCAACACAGCGUGGCUAAGUGGCUGUGGCUAGACUGCCUCUCUGGAUUCCUCGUCACUCAGCAGGGCAUCUCUGAGAGAAAUGCC, the self-cleavage stood at 1.32. As for UACGUAGGUGGUUUUCCCCUGGUAGUGCUAAGGGGGCCUGGAAGUUUGGACUGGGCAGAGCUCAACACAGCGUGGCAAAGUGGCUGUGGCUAGACUGCCUCUCAGGAUUCCUCGUCACUCAGCAGGGCAUCUCAGAGAGAAAUGCC, the self-cleavage is 1.48.

For UACGUAGGUGGUUUUCCCCUGGUAGUGCUAAGGGGGCCUGGAAGUUUGGACUGGGCAGAGCCCGACACAGCGUGGCAAAGUGGCUGUGGCUAGACUGCCUCUCUGGACUCCUCGUCACUCAGCAGGGCAUCUCUGAGAGAAAUGCC, the self-cleavage was 0. Regarding UACGUAGGUGGUUUUCCCCUGGUAGUGCUAAGGGGGCCUGGAAGUUUGGACUGGGCAGAGCUCAACACAGCGUGGCAAAGUGGCUGUGGCUAGACCGCCUCUCUGGAUUCCUCGUCACUCUGCAGGGCAUCUCUGAGAGAAAUGCC, the self-cleavage came out at 0.25. UACGUAGGUGGUUUUCCCCUGGUAGUGCUAAGGGGGCCUGGAAGUUUGGACUGGGCAGAGCUCAACACAGCGUGGCAAAGUGGCUGAGGCUAGACCGCCUCUCUGGAUUCCUCGUCACUCAGCAGGGCAUCUCUGAGAGAAAUGCC: the self-cleavage was 0.18. As for UACGUAGGUGGUUUUCCCCUGGUAGUGCUAAGGGGGCCUGGAAGUUUGGACUGGGCAGAGCUCAACACAGCGUGGCAAAGCGGCUGUGGCUAGACUGCCUCUCUGGAUUCCUCGUCACUCAGCAGGGCAUCUCUGAGAGAAAAGCC, the self-cleavage amounted to 0.95. In the case of UACGUAGGUGGUUUUCCCCUGGUAGUGCUAAGGGGGCCUGGAAGUUUGGACUGGGCAGAGCCCAACACAGCGUGGCAUAGUGGCUGUGGCUAGACUGCCUCUCUGGAUUCCUCGUCACUCAGCAGGGCAUCUCUGAGAGAAAUGCC, the self-cleavage came out at 0.11.

As for UACGUAGGUGGUUUUCCCCUGGUAGUGCUAAGGGGGCCUGGAAGUUUGGACUGGGCAGAGCACAACACAGCGUGGCAAAGUGGCUGUGGCUAGACUGCCCCUCUGGAUUCCUCGUCACUCAGCAGGGCAUCUCUGAGAGAAACGCC, the self-cleavage came to 0.06. As to UACGUAGGUGGUUUUCCCCUGGUAGUGCUAAGGGGGCCUGGAAGUCUGGACUGGGCAGAGCUCAACACAGCGUGGCAAAGUGGCUGUGGCUAGACUGCCUCUCUGGAUUCCUCGUCACUCAGCAGGGCGUCUCUGAGAGAAAUGAC, the self-cleavage is 0.92. For UACGUAGGUGGUUUUCCCCUGGUAGUGCUAAGGGGGCCUGGAAGUUUGGACUGGGCAGAGCUCAACACAGCGAGGCAAAGUGGCUGUGGCUAGACUGCCUCUCUGGAUUCCUCGUCACUCAGCAGGGCAUCCCUGAGAGAAAUGCC, the self-cleavage came to 2.08.

On to UACGUAGGUGGUUUUCCCCUGGUAGUGCUAAGGGGGCCUGGAAGUCUGGACUGGGCAGAGCUCAACACAGCGUGGCAAAGUGGCUGUGGCUAGACUGCCUCUCUGGAUUCCUCGUCACUCAGCGGGGCAUCUCUGAGAGAAAUGCC, for which the self-cleavage is 1.02.

As to UACGUAGGUGGUUUUCCCCUGGUAGUGCUAAGGGGGCCUGGAAGUUUGGACUGGGCAGAGCUCAACACAGCGUGGCAAAGUGGCUGUGGCUAGACAGCCUCUCUGGAUUCCUCGUCACUCUGCAGGGCAUCUCUGAGAGAAAUGCC, the self-cleavage came out at 0.23. For UACGUAGGUGGUUUUCCCCUGGUAGUGCUAAGGGGGCCUGGAAGUUUGGACUGGGCAGAGCUCAACACAGCGUGGCAAAGCGGCUGUGGCUAGACUACCUCUCUGGAUUCCUCGUCGCUCAGCAGGGCAUCUCUGGGAGAAAUGCC, the self-cleavage is 0.37. As for UACGUAGGUGGUUUUCCCCUGGUAGUGCUAAGGGGGCCUGGAAGUUUGGACUGGGCAGAGCCCAACACAGCGUGGCAAAGUGGCUGUGGCUAGACUGCCUCUCUGGAUUCCUCGUCACUCAGCAGGGCAUCUCUGUGAGAAAUGCC, the self-cleavage amounted to 0.14. Consider UACGUAGGUGGUUUUCCCCUGGUAGUGCUAAGGGGGCCUGGAAGUUAGGACUGGGCAGAGCUCAACACAGCGUGGCAAAGUGGCUGUGGCUAGACUGCCCCUCUGGAUUCCUCGUCACUCAGCAGGGCAUCUCUGAGAGAAAUGCC, for which the self-cleavage came to 1.84.

In the case of UACGUAGGUGGUUUUCCCCUGGUAGUGCUAAGGGGGCCUGGAAGUUUGGACUGGGCAGAGCUCAACACAGCGUGGCAAAGUGGCUGUGGCUAGACUGCCCCUCUGGAUUCCUUGUCACUCAGCAGGGCAUCUCUGAGAGAAAUGCC, the self-cleavage is 1.37. Take UACGUAGGUGGUUUUCCCCUGGUAGUGCUAAGGGGGCCUGGAAGUCUGGGCUGGGCAGAGCUCAACACAGCGAGGCUAAGUGGCUGUGGCUAGACUGCCUCUCUGGAUUCCUCGUCACUCAGCAGGGCAUCUCUGAGAGAAAUGCC: the self-cleavage stood at 1.06.
